# Measurements reported in article PMC4336329 (PLoS ONE, 2015).
# The whole screen tested about 310,000 compounds, of which about 2,200 (0.71%) showed an effect of 50% or more. The effect is printed as a negative number. This is one part of the list.
# Target: human ether-à-go-go-related gene (hERG) potassium channel (human, UniProt Q12809)
# Experiment: primary screen, population patch clamp on CHO cells stably expressing hERG
# Chain of human ether-à-go-go-related gene (hERG) potassium channel (Q12809 whole entry, looked up): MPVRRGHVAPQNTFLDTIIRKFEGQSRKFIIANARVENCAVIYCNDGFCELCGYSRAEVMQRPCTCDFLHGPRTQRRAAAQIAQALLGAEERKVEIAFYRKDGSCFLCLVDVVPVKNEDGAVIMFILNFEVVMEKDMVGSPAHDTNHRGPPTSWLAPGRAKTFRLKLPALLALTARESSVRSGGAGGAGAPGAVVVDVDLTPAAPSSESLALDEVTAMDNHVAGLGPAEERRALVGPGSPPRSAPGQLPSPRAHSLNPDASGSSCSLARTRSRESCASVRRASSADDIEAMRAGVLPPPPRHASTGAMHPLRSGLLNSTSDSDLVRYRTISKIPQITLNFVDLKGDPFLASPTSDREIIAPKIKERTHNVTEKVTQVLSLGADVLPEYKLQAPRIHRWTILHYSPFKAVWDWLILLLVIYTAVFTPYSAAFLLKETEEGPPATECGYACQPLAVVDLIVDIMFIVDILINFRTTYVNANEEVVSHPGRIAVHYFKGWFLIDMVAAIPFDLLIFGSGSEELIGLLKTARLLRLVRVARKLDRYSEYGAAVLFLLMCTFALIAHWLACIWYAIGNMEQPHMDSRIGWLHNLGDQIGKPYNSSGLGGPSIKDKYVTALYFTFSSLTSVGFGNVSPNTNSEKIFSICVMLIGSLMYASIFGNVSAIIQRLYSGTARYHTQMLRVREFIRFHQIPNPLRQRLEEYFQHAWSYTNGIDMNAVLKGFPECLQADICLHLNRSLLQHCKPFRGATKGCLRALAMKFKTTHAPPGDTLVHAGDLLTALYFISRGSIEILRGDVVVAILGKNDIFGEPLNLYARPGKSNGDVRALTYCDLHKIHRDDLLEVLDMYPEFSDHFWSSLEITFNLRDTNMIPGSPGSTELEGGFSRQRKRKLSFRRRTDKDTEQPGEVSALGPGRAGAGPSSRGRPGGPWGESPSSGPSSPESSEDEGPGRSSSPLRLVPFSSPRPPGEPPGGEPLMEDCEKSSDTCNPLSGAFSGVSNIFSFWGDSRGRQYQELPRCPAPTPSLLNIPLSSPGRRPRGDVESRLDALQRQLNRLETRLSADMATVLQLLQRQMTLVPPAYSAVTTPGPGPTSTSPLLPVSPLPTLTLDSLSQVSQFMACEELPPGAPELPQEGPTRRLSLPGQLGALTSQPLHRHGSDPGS
row,SMILES,"hERG current change (%, negative = inhibition) at 1uM [%]"
1,Cc1cccn2c(=O)nc(SCC(=O)Nc3ccc4c(c3)OCO4)nc12,0.76
2,CC(c1ccccc1)C1C(C#N)=C(N)SC(N)=C1C#N (stereo not shown),-11.3
3,O=C(NC1CCN(CC(=O)N(c2ccccc2)c2ccccc2)CC1)c1ccc([N+](=O)[O-])cc1,-78.6
4,CC(C)Oc1cccc(C(=O)N/N=C/c2ccoc2)c1,12.8
5,CC(=O)c1ccc(NC(=O)Nc2ccc(Br)cc2C)cc1,7.32
6,COc1ccc(NC(=O)NCCN2CCCCC2)cc1,7.19
7,O=C(CSc1ncnc2sc3c(c12)CCCC3)c1ccccc1,9.22
8,Cc1cccc(NC(=S)N(CCN2CCOCC2)Cc2ccccc2F)c1,3.83
9,COC(=O)c1sc(S(=O)(=O)NCc2ccccc2)c(C(=O)OC)c1C,-5.58
10,O=C(NCc1ccccc1)c1ccc(Br)o1,12.4
11,Cc1oc2c(c1C(=O)NCCO)CCCC2,14
12,CN(Cc1cccnc1)C(=O)Cc1ccc(NS(=O)(=O)c2cccc(C(F)(F)F)c2)cc1,-4.5
13,CCn1ccc(C(=O)NCc2ccc3c(c2)OCO3)n1,9.9
14,COCCNC(=O)COC(=O)C1=Cc2ccccc2OC1,13.7
15,Nc1cc(CN2C(=O)c3ccccc3C2=O)cc(Cl)c1O,3.7
16,COc1cc(OC)c(C2=NOC(C(=O)NCc3ccc4c(c3)OCO4)C2)cc1Cl (stereo not shown),12.5
17,O=C(C(=O)N1CCCCC1)c1c(-c2ccccc2)[nH]c2ccccc12,9.47
18,Cc1ccc(Oc2nnc(-c3ccccc3)c3ccccc23)cc1,-3.06
19,Nn1c(SCc2cn3cc(Cl)ccc3n2)nnc1-c1ccncc1,4.79
20,COC(=O)c1cc2c(ccn2-c2ccc(F)cc2)n1CC(=O)N1CCN(C(=O)c2ccco2)CC1,-46.1
21,O=C1CC2c3ccccc3C1C1C(=O)N(Cc3ccccc3)C(=O)C21 (stereo not shown),8.84
22,O=C(c1cccc([N+](=O)[O-])c1)c1ccc2c(c1)OCCOCCOCCOCCO2,-32.6
23,CCOc1ccc(-c2nnc3sc(COc4ccc(C)cc4)nn23)cc1,12.2
24,CCc1ccc(S(=O)(=O)NCCc2cn3cccc(C)c3n2)s1,1.83
25,CN(CCc1cn[nH]c1)Cc1nc(Cc2ccccc2F)no1,13.5
